Source: publication PMC10530723, “The Conserved Chromatin Remodeler SMARCAD1 Interacts with TFIIIC and Architectural Proteins in Human and Mouse” (Genes, 2023)
These are yes or no findings as the source states them, for the method shown. Binding seen in cells or lysates may run through a third protein. Some binding calls cover weakened binding; strength is not graded here. One block for each molecule: values may come before it.

Protein sequences, listed by entry. Tags and fused reporters are not part of them.
UniProt Q9UQE7: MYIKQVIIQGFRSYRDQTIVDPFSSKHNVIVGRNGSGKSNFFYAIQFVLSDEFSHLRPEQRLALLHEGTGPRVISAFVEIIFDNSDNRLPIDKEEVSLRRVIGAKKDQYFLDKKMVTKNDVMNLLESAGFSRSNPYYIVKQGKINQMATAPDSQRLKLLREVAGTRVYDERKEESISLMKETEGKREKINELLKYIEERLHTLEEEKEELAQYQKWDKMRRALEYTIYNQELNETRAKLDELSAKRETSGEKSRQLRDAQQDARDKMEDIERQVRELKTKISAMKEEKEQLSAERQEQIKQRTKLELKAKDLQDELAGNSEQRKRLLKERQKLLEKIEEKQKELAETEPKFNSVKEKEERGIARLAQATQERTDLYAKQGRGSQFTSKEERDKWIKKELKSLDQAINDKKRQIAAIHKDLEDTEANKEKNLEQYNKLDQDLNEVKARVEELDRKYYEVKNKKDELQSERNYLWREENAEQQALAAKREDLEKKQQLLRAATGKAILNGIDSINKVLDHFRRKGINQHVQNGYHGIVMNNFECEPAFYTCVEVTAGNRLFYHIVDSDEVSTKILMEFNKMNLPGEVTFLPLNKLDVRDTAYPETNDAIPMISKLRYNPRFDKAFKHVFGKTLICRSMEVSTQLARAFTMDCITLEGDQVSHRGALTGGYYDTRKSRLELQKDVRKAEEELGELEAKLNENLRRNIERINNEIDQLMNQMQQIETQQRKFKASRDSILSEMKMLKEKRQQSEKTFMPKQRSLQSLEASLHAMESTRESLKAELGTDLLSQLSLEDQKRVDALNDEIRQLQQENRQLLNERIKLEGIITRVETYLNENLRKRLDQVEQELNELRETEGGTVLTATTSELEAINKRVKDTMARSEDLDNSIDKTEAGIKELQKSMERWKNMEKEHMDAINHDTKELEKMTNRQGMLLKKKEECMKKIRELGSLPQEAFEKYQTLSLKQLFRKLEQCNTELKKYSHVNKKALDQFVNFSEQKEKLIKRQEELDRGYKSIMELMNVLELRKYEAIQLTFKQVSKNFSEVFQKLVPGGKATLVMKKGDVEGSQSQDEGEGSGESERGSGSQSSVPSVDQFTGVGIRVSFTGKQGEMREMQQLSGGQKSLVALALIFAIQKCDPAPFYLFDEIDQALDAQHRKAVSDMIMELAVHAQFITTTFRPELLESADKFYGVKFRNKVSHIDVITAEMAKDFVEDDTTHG
UniProt Q13263: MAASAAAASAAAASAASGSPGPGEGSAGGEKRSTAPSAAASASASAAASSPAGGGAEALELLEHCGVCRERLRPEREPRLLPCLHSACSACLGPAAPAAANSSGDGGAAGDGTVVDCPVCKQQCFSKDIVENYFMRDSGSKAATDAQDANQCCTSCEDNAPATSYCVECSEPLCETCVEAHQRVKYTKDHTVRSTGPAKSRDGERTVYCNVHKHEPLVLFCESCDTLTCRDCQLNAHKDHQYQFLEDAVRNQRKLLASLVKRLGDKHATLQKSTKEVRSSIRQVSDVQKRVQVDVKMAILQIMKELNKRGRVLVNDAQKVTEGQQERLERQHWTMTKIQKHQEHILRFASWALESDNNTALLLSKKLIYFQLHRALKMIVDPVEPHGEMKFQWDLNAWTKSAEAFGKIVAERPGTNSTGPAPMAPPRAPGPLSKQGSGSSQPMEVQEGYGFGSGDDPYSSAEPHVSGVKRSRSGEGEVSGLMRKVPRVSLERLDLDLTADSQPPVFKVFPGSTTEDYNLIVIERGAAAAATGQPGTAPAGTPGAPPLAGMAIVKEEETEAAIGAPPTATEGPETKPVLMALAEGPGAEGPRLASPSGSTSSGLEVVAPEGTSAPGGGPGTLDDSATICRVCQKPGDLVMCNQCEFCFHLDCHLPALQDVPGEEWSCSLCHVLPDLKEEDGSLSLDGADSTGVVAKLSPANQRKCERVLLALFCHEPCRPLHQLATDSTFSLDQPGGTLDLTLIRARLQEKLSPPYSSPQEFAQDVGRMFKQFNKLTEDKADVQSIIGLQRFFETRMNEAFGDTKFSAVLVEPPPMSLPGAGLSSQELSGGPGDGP
UniProt P17844: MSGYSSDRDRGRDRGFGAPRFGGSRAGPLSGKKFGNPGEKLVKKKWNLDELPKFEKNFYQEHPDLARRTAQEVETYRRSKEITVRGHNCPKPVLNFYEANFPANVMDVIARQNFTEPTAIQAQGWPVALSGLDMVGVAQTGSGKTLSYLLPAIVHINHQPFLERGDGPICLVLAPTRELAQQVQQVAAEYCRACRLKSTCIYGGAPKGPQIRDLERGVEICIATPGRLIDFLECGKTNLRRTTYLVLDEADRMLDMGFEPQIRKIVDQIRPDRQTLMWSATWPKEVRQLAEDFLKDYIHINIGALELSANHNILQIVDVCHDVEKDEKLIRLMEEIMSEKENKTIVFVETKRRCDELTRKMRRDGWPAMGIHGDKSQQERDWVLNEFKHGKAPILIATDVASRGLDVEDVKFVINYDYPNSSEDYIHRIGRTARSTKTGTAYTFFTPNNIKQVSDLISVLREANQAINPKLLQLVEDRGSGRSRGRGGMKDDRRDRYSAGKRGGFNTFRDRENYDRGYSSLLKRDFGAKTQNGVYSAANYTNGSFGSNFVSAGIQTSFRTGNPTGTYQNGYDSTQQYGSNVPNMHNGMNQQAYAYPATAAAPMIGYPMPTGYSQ

What was measured:
[1] = biological target: T1, SMARCAD1 (endogenous, HeLa) (human (endogenous in HeLa)) (UniProt Q9H4L7); assay: co-IP; endogenous proteins from HeLa nuclear extract (150 ug protein, 3 ug antibody to SMARCAD1, TFIIIC63 or TFIIIC90, Protein G Dynabeads); benzonase and ethidium bromide present throughout; washes in 20 mM HEPES pH 7.6, 100 mM KCl, 0.05% Triton X-100, last wash with additional 50 mM NaCl; Western blot
T1 sequence: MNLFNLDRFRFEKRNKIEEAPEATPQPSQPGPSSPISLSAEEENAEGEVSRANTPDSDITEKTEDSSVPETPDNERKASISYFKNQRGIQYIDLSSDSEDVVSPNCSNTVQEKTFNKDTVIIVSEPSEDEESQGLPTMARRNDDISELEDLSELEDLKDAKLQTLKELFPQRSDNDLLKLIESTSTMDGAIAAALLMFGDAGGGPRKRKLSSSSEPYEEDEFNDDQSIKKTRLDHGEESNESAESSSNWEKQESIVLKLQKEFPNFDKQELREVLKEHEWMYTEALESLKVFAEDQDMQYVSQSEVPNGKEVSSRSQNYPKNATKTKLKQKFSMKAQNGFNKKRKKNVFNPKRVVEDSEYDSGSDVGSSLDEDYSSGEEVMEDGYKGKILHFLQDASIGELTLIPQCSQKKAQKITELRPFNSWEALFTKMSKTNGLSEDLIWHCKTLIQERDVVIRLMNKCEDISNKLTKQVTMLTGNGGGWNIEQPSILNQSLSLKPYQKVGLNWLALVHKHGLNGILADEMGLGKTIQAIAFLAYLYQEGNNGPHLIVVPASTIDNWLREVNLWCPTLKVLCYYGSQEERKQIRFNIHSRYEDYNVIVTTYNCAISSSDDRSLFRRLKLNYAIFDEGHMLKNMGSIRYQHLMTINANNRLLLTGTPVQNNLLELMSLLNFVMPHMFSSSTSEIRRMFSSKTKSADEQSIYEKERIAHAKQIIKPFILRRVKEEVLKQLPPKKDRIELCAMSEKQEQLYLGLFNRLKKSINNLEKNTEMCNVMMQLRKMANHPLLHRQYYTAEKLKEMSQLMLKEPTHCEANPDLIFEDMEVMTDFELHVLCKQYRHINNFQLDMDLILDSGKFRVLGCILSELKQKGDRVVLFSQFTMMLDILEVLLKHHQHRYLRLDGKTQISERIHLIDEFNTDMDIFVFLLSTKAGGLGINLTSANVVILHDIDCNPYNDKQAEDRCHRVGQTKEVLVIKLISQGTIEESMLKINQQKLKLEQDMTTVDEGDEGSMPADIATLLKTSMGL

[2] = biological target: T2, TFIIIC90 (endogenous, HeLa) (human (endogenous in HeLa)) (UniProt Q9UKN8); assay: as above
T2 sequence: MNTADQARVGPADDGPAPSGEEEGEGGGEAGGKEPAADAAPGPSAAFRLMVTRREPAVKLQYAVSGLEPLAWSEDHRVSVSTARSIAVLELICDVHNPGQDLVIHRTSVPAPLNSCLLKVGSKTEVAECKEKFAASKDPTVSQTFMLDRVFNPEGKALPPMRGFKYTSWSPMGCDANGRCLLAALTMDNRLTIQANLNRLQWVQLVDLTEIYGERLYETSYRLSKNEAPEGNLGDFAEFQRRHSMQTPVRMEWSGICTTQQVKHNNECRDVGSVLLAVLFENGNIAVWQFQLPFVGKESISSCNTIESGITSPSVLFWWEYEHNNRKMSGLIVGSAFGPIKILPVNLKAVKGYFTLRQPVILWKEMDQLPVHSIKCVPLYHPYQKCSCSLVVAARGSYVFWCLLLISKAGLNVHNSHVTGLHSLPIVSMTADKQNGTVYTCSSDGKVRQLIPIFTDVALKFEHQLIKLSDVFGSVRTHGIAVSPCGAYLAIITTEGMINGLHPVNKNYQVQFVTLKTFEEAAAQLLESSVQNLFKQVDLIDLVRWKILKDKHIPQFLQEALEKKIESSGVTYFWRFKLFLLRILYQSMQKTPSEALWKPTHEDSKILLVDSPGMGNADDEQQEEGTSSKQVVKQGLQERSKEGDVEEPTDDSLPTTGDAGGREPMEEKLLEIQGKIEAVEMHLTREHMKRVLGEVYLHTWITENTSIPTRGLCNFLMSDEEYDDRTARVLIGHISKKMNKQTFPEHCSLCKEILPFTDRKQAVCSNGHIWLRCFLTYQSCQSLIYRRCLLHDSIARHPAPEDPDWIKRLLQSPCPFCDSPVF

Molecule: SMC3 (endogenous, HeLa) (from UniProt Q9UQE7 1-1217)
binding [1]: binds
binding [2]: binds

Molecule: KAP1 (endogenous, HeLa) (from UniProt Q13263 1-835)
binding [2]: binds

B1: TFIIIC90 (endogenous, HeLa) (protein, UniProt Q9UKN8 1-822)
chain: T2 sequence
binding [1]: binds

B2: SMC1A (endogenous, HeLa) (protein, UniProt Q14683 1-1233)
chain: MGFLKLIEIENFKSYKGRQIIGPFQRFTAIIGPNGSGKSNLMDAISFVLGEKTSNLRVKTLRDLIHGAPVGKPAANRAFVSMVYSEEGAEDRTFARVIVGGSSEYKINNKVVQLHEYSEELEKLGILIKARNFLVFQGAVESIAMKNPKERTALFEEISRSGELAQEYDKRKKEMVKAEEDTQFNYHRKKNIAAERKEAKQEKEEADRYQRLKDEVVRAQVQLQLFKLYHNEVEIEKLNKELASKNKEIEKDKKRMDKVEDELKEKKKELGKMMREQQQIEKEIKEKDSELNQKRPQYIKAKENTSHKIKKLEAAKKSLQNAQKHYKKRKGDMDELEKEMLSVEKARQEFEERMEEESQSQGRDLTLEENQVKKYHRLKEEASKRAATLAQELEKFNRDQKADQDRLDLEERKKVETEAKIKQKLREIEENQKRIEKLEEYITTSKQSLEEQKKLEGELTEEVEMAKRRIDEINKELNQVMEQLGDARIDRQESSRQQRKAEIMESIKRLYPGSVYGRLIDLCQPTQKKYQIAVTKVLGKNMDAIIVDSEKTGRDCIQYIKEQRGEPETFLPLDYLEVKPTDEKLRELKGAKLVIDVIRYEPPHIKKALQYACGNALVCDNVEDARRIAFGGHQRHKTVALDGTLFQKSGVISGGASDLKAKARRWDEKAVDKLKEKKERLTEELKEQMKAKRKEAELRQVQSQAHGLQMRLKYSQSDLEQTKTRHLALNLQEKSKLESELANFGPRINDIKRIIQSREREMKDLKEKMNQVEDEVFEEFCREIGVRNIREFEEEKVKRQNEIAKKRLEFENQKTRLGIQLDFEKNQLKEDQDKVHMWEQTVKKDENEIEKLKKEEQRHMKIIDETMAQLQDLKNQHLAKKSEVNDKNHEMEEIRKKLGGANKEMTHLQKEVTAIETKLEQKRSDRHNLLQACKMQDIKLPLSKGTMDDISQEEGSSQGEDSVSGSQRISSIYAREALIEIDYGDLCEDLKDAQAEEEIKQEMNTLQQKLNEQQSVLQRIAAPNMKAMEKLESVRDKFQETSDEFEAARKRAKKAKQAFEQIKKERFDRFNACFESVATNIDEIYKALSRNSSAQAFLGPENPEEPYLDGINYNCVAPGKRFRPMDNLSGGEKTVAALALLFAIHSYKPAPFFVLDEIDAALDNTNIGKVANYIKEQSTCNFQAIVISLKEEFYTKAESLIGVYPEQGDCVISKVLTFDLTKYPDANPNPNEQ
binding [1]: binds
binding [2]: binds

More lines, now with the values ahead:

binding [1]: binds
binding [2]: binds
Molecule: DDX5 (endogenous, HeLa) (from UniProt P17844 1-614)

binding [1]: binds
B3: TFIIIC63 (endogenous, HeLa) (protein, UniProt Q9Y5Q8 1-519)
chain: MAAEAADLGLGAAVPVELRRERRMVCVEYPGVVRDVAKMLPTLGGEEGVSRIYADPTKRLELYFRPKDPYCHPVCANRFSTSSLLLRIRKRTRRQKGVLGTEAHSEVTFDMEILGIISTIYKFQGMSDFQYLAVHTEAGGKHTSMYDKVLMLRPEKEAFFHQELPLYIPPPIFSRLDAPVDYFYRPETQHREGYNNPPISGENLIGLSRARRPHNAIFVNFEDEEVPKQPLEAAAQTWRRVCTNPVDRKVEEELRKLFDIRPIWSRNAVKANISVHPDKLKVLLPFIAYYMITGPWRSLWIRFGYDPRKNPDAKIYQVLDFRIRCGMKHGYAPSDLPVKAKRSTYNYSLPITVKKTSSQLVTMHDLKQGLGPSGTSGARKPASSKYKLKDSVYIFREGALPPYRQMFYQLCDLNVEELQKIIHRNDGAENSCTERDGWCLPKTSDELRDTMSLMIRQTIRSKRPALFSSSAKADGGKEQLTYESGEDEEDEEEEEEEEEDFKPSDGSENEMETEILDYV
